# PubChem BioAssay AID1458 (National Center for Advancing Translational Sciences (NCATS), 2008)
# Several values for one entry are separate records, joined by “and”; a condition that tells them apart may be missing. Equal values may be shown once. Hit rate of the full screen: of about 210,000 compounds, about 5,900 (2.8%) were called active. Inconclusive means that the source gave no clear call. Such entries were picked first, then a sample of the others. Calls follow the shape of the dose curve; as a rule, active = well fitted activation curve with a large enough effect; inconclusive = small, poorly fitted or top-dose-only effect; inactive = no such curve, though single readings can be large or run the other way. Potencies of inconclusive entries are doubtful fits and often do not repeat.
# Experiment: qHTS Assay for Enhancers of SMN2 Splice Variant Expression; also: nearly all actives have a fitted effect of over 55% in size; as to activity change, positive = activation: % of control where 0% means no effect
# Conditions: HEK293 SMN2-luciferase splicing reporter, luminescence, 30-36 h; activity change, positive = activation: at 46.1 µM (top of the series)
# How it was run: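 qHTS luciferase splicing reporter: luminescence rises when SMN2 exon 7 is included in transfected HEK293 cells. Compound exposure lasted 30-36 h at 37C, with 4.5 mM final sodium butyrate as control, followed by a ONE-Glo read.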
# Potency is read from the fitted curve at half-maximal effect; tags tell the direction and shape of the fitted curve.
Structure (SMILES),Potency,"activity change, positive = activation"
O=C(/C=C/c1ccc(Cl)cc1Cl)n1cccn1,inactive,
O=C(O)c1ccccc1-c1ccccc1C(=O)NCCCO,inactive,
C=CCn1c(SCC(=O)NCC2CCCO2)nnc1C1CCCCC1 (stereo not given),"inconclusive: 0.0032 µM [activator, full curve, poor fit]",
Cc1cccc(NC(=O)Nc2ccc(C)c(C)c2)n1,"inconclusive: 15.8 µM [activator, single point] and inconclusive: 2.82 µM [activator, single point]",
NCC(O)CC(=O)O (stereo not given),inactive,
Cc1ccc(C(=O)COC(=O)c2cccs2)cc1,"inconclusive: 12.6 µM [activator, single point]",
Cc1ccc(NC(=O)NC2CCCCC2)cc1Cl,active: 12.6 µM,
N#C/C(=C\c1ccc(F)cc1)c1n[nH]c(Cn2cncn2)n1,"inconclusive: 17.8 µM [activator, partial curve]",
Cc1ccc(Nc2ccccc2)cc1,inactive,
O=C(Cc1ccccc1)Nc1ccc2c(c1)C(=O)N(CC1CCCO1)C2=O (stereo not given),inactive,
CCCN1CNC(=S)N(CCc2ccccc2)C1,"inconclusive: 4.47 µM [activator, single point]",
Cc1cc2oc(C(=O)Nc3nc(-c4ccccc4)ns3)c(C)c2cc1Cl,inactive,
COc1ccc2c(c1)C(=O)N(c1ccc(C)cc1)C(=O)C2,"inconclusive: 0.0282 µM [activator, full curve, poor fit]",
O=C(O)/C=C/c1nc(-c2ccccc2)n2ccccc12,"inconclusive: 1.12 µM [activator, partial curve, poor fit]",
CCCCOCP(=O)(CCCC)COCCCC,"inconclusive: 0.0316 µM [activator, full curve, poor fit]",
O=C(Nc1ccc2c(c1)OCCO2)C(=S)NCc1ccccc1,"inconclusive: 22.4 µM [activator, single point]",
Cn1c(=O)cc(NCCc2ccccc2)[nH]c1=O,"inconclusive: 7.08 µM [activator, partial curve, poor fit]",
CN1C(=O)N(C)C2(c3ccccc3)Nn3c(s/c(=C/c4ccco4)c3=O)=NC12c1ccccc1 (stereo not given),"inconclusive: 10 µM [activator, partial curve, poor fit]",
Cc1ccccc1NC1=CC(=O)CC(C)(C)C1,inactive,
C/C(=N\NC(=O)C1CC1)c1cccnc1,"inconclusive: 11.2 µM [activator, single point]",
CC(=O)Nc1ccc(N/C=C/C(=O)c2ccc(C)o2)cc1,inactive,
Cc1ccc(Nc2nc3c(c(=O)[nH]2)CCCC3)cc1,"inconclusive: 10 µM [activator, partial curve, poor fit]",
Cc1cccc(CSc2nc3[nH]ncc3c(=O)[nH]2)c1,"inconclusive: 22.4 µM [activator, partial curve, poor fit]",
CCOC(=O)N1CCN(C(=O)c2cn(CC(C)C)c(=O)c3c2c2ccccc2n3C)CC1,inactive,
CCC(NC(=O)Nc1nnc(C(F)(F)F)s1)(C(F)(F)F)C(F)(F)F,inactive,

Structure (SMILES),Potency,"activity change, positive = activation"
COc1ccc(/C=C/C2=CC(C)(C)NC(=S)N2)c(OC)c1,"inconclusive: 35.5 µM [activator, single point]",
CCn1c(SCc2nc3ccccc3[nH]2)nnc1-c1cccnc1,inactive,
Cc1ccc(N(C)S(=O)(=O)c2cccc(C(=O)NC3=NCCS3)c2)cc1,"inconclusive: 3.98 µM [activator, single point]",
O=C(CSc1nc2cc3ccccc3cc2[nH]1)Nc1cccc(C(F)(F)F)c1,inactive,
O=C(Nc1nsc(-c2ccccc2)n1)c1ccc(F)cc1,"inconclusive: 7.94 µM [activator, partial curve, poor fit]",
COc1ccc(OC)c(NC(=O)C2CCN(S(=O)(=O)c3ccc(C)cc3)CC2)c1,inactive,
Cc1cccc(NC2=C(Cl)C(=O)OC2OC(C)C)c1 (stereo not given),inactive,
O=C(Nc1ccccc1)N1CC[C@@]2(CCCN(C(=O)c3cccc(F)c3)C2)C1,inactive,
O=C(COc1ccccc1)Nc1ccc(OCc2cc(=O)n3ccsc3n2)cc1,inactive,
Cc1ccc([N+](=O)[O-])cc1NC(=O)c1ccc(C(C)(C)C)cc1,inactive,
FC(F)(F)c1cccc(NC(=S)Nc2cccc(Cl)c2)c1,"inconclusive: 1.78 µM [activator, single point]",
Cc1cccc(C)c1OCC(=O)NCC1CCCO1 (stereo not given),,inconclusive: 30.5% [activator]
Cc1cc(NC(=O)c2cc([N+](=O)[O-])cc([N+](=O)[O-])c2)n(-c2ccccc2)n1,inactive,
O=C(CC1OC(=O)c2ccccc21)Nc1ccccc1N1CCOCC1 (stereo not given),"inconclusive: 15.8 µM [activator, single point]",
O=C(COC(=O)c1ccc(Br)o1)Nc1nc2ccccc2s1,inactive,
N#Cc1c(-c2ccco2)cc(-c2ccc(F)cc2)nc1N,"inconclusive: 12.6 µM [activator, partial curve]",
Cc1cc(C(=O)CSc2nc3ccccc3[nH]2)c(C)n1Cc1ccco1,"inconclusive: 5.62 µM [activator, single point]",
CC1CCCCN1C(=O)Cc1ccc(F)cc1 (stereo not given),"inconclusive: 31.6 µM [activator, partial curve]",
Cn1cccc1CC(=O)N/N=C/c1cccc2ccccc12,inactive,
CCc1c(O)c(/C(C)=N\O)c(=O)n(-c2ccccc2)c1-c1ccccc1,"inconclusive: 3.55 µM [activator, partial curve, poor fit]",
Cc1ccc(Nc2c(-c3ccc(N4CCOCC4)cc3)nc3cccc(C)n23)cc1,inactive,
CCN=C(Nc1ccc2c(c1)OCO2)SC1CC(=O)N(c2ccc(OC)cc2)C1=O (stereo not given),inactive,
CC(=O)Nc1nonc1-n1nnc(C(=O)NCc2ccccc2)c1C,"inconclusive: 0.005 µM [activator, full curve]",
Cc1cc(NCCCn2ccnc2)n2c(nc3ccccc32)c1C#N,"inconclusive: 0.224 µM [activator, full curve]",
Nc1nc(CN2CCN(Cc3ccccc3)CC2)nc(Nc2ccc3c(c2)OCCO3)n1,"inconclusive: 35.5 µM [activator, partial curve, poor fit]",

Structure (SMILES),Potency,"activity change, positive = activation"
O=[N+]([O-])c1cccc(N/N=C/c2cccc(O)c2O)c1,"inconclusive: 15.8 µM [activator, single point]",
CC(=O)Nc1ccc(-c2nc(C)c(C(C)=O)n2O)cc1,"inconclusive: 2.82 µM [activator, full curve, poor fit]",
Cc1cc2nc(C3CCCN(C(=O)NCc4ccccc4)C3)[nH]c2cc1C (stereo not given),"inconclusive: 22.4 µM [activator, single point]",
C=CCn1c(C)cc(-c2csc(N)n2)c1C,"inconclusive: 0.0501 µM [activator, full curve, poor fit]",
CCOC(=O)N1CCN(c2cc(=O)n(-c3ccc(OC)cc3)c(=O)[nH]2)CC1,"inconclusive: 0.0032 µM [activator, full curve, poor fit]",
COc1cc2c(cc1OC)CN(C(=O)Cc1ccc(OC)c(S(=O)(=O)N3CCOCC3)c1)CC2,"inconclusive: 5.62 µM [activator, single point]",
Cc1ccc(NC(=O)c2ccc(Cl)nc2)cc1,"inconclusive: 12.6 µM [activator, single point]",
CCn1c(Cc2c(C)[nH]c3ccccc23)nnc1SCC(=O)NCc1ccccc1,inactive,
CN(CC(=O)N1CCc2ccccc21)S(=O)(=O)c1ccc(Br)s1,"inconclusive: 35.5 µM [activator, single point]",
Cc1cc(NC(=O)/C=C/c2ccc(Cl)cc2)no1,"inconclusive: 0.0794 µM [activator, single point]",
O=C(c1cc(-c2ccccc2O)on1)N1CCCC1,"inconclusive: 31.6 µM [activator, single point]",
Cc1cccc(NC(=O)CCN2CCN(C/C=C/c3ccccc3)CC2)c1,"inconclusive: 0.1 µM [activator, full curve]",
O=c1c(-c2ccccc2)coc2cc(O)ccc12,active: 22.4 µM,
CCn1c(CN2CCN(c3cccc(Cl)c3)CC2)nc2c1c(=O)[nH]c(=O)n2C,inactive,
COc1ccc(CSc2nncn2N)cc1[N+](=O)[O-],"inconclusive: 0.0178 µM [activator, full curve, poor fit]",
C=CCNC(=O)/C(C#N)=C/c1ccc2c(c1)OCCO2,inactive,
Cc1cccc2cc(CN(CCCN3CCOCC3)Cc3nnnn3C(C)(C)C)c(=O)[nH]c12,"inconclusive: 35.5 µM [activator, single point]",
CS(=O)(=O)N(Cc1ccccc1)c1ccc(C(=O)NCc2ccccc2)cc1,"inconclusive: 2.82 µM [activator, partial curve, poor fit]",
O=C(NC(=S)N1CCCc2ccccc21)c1ccc(Cl)cc1,"inconclusive: 15.8 µM [activator, single point]",
N#Cc1nc(-c2ccccc2F)oc1NCCc1ccccc1,inactive,
CN(C)c1ccc(N=Nc2ccccc2C(=O)OCC(=O)N(C)c2ccccc2)cc1,"inconclusive: 12.6 µM [activator, single point]",
C/C(=N\NC(=O)c1ccccc1)c1ccc(C)c([N+](=O)[O-])c1,"inconclusive: 25.1 µM [activator, single point]",
COc1ccc(C(=O)/C=C/c2ccc(N3CCCCC3)c([N+](=O)[O-])c2)cc1,inactive,
O=C(c1ccc2c(c1)OCO2)c1cn(Cc2ccc(F)cc2)c2ccccc2c1=O,inactive,
CCc1cc(C(=O)Nc2cnn(Cc3ccc(F)cc3)c2)no1,"inconclusive: 35.5 µM [activator, single point]",
